Among all 310,000 compounds or so, about 14,000 (4.5%) showed an effect of 50% or more. Effects have a minus sign here. The list shows a part of the results.
What follows are molecules tested against human ether-à-go-go-related gene (hERG) potassium channel (human, UniProt Q12809) (assay: primary screen, population patch clamp on CHO cells stably expressing hERG).
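Also: peak tail current of the secondary pulse compared with the same well before compound.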

Chain of human ether-à-go-go-related gene (hERG) potassium channel (Q12809 whole entry, looked up): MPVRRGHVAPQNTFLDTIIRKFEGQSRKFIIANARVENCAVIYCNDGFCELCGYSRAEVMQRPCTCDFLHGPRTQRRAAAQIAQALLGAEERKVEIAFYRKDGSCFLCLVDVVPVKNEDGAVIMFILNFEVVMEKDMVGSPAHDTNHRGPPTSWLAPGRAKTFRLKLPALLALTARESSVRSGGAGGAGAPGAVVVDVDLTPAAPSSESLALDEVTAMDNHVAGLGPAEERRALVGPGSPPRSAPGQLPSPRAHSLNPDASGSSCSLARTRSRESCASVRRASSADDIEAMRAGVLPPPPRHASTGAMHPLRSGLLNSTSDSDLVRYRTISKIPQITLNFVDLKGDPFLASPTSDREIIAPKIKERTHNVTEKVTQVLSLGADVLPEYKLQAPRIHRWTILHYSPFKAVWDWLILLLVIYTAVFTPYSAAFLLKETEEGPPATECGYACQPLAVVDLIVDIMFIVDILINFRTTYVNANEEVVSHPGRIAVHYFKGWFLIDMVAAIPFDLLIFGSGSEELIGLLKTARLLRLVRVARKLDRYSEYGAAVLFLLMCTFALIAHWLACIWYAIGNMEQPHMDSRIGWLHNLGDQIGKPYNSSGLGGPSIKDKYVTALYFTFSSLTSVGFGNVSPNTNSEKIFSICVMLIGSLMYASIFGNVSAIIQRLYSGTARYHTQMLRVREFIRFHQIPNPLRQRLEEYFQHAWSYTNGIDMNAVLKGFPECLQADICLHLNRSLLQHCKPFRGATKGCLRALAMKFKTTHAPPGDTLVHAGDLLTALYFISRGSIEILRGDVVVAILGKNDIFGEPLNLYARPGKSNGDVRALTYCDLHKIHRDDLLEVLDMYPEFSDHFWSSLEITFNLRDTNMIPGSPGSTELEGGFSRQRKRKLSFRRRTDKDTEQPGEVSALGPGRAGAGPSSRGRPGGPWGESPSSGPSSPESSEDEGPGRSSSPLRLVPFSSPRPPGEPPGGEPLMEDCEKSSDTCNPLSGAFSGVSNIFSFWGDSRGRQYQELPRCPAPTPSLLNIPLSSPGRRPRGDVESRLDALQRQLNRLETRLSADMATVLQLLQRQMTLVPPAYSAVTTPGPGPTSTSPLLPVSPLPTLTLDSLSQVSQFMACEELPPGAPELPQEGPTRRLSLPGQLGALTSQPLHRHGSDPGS

SMILES | hERG current change (%, negative = inhibition) at 10uM [%]
O=C(NCCCn1ccnc1)c1cc(C(=O)C2CCCCC2)c[nH]1 | -4.88
Cc1nnc(NC(=O)C2CCCN2C(=O)Nc2ccccc2)s1 (stereo not shown) | 7.32
COc1ccc(NC(=O)c2cc(C(=O)Nc3ccc(OC)cc3OC)cc([N+](=O)[O-])c2)c(OC)c1 | 18.1
CN1C(=O)C(=Cc2ccc(OCCN(C)c3ccccn3)cc2)C(=O)N(C)C1=O | -18.5
CCOc1ccc(NC(=O)N2CCCC2C(=O)NCC2CCCO2)cc1 (stereo not shown) | 18.5
COc1ccc(-n2c(SCC(=O)NCc3ccco3)nnc2-c2c[nH]c3ccccc23)cc1 | -10.9
COc1ccc(NC(=O)CN(C)C(=O)/C=C/c2ccc(OCc3ccccc3)cc2)cc1 | 12.6
O=C1c2ccccc2C(=O)c2c1cccc2N1CCN(CCO)CC1 | -69.7
CN1CCN(S(=O)(=O)c2cccc(C(=O)N(C)Cc3cccs3)c2)CC1 | -7.83
COc1ccc(NC(=O)CCS(=O)(=O)c2cccc3nonc23)c(OC)c1 | 6.33
COc1ccc(N2CCN(C(=O)CN(C)S(=O)(=O)c3ccc4c(c3)c(=O)n(C)c(=O)n4C)CC2)cc1 | -17.7
O=c1[nH]c(=S)[nH]c2scc(-c3ccc(Br)cc3)c12 | 16.3
CCCSc1nnc(CN2CCOCC2)n1C | 13.3
CCCCNC(=O)CCn1c(=S)[nH]c2cc3c(cc2c1=O)OCO3 | -6.45
COc1ccccc1C1(CC(=O)N2CCOCC2)CCOC(C(C)C)C1 (stereo not shown) | 0.834
CCOC(=O)C1(Cc2ccccc2Cl)CCN(C(=O)CCn2ccnc2C)CC1 | -52.6
CCN(CC)S(=O)(=O)c1ccc(-c2nnc(SCC(C)=O)o2)cc1 | -8.48
O=C(COc1cccc2cccnc12)N1CCc2ccccc2C1 | -11.9
COc1ccc(-c2cc(C(=O)Nc3cc(Cl)ccc3O)no2)cc1 | 21
CC1(C)CC(=O)C2=C(C1)NC(Nc1nc3ccccc3o1)=NC21CCCC1 | -5.69
CCC(C)NC(=O)Nc1ccc(F)c(Cl)c1 (stereo not shown) | 16.9
N#Cc1c(SCC(=O)Nc2cccc(F)c2)sc2c(O)cc(=O)[nH]c12 | 7.53
CN1CCN(C(=O)CNc2ccc(C(F)(F)F)cc2[N+](=O)[O-])CC1 | -19.5

SMILES | hERG current change (%, negative = inhibition) at 10uM [%]
COC(=O)C(C)Sc1snnc1-c1ccccc1 (stereo not shown) | 3.38
CCOC(=O)CN(C(=O)Cn1nnc2ccccc21)C(C(=O)NCCOC)c1ccccc1 (stereo not shown) | -3.03
Cc1ccc(S(=O)(=O)N2CCN(C(=O)COC(=O)/C=C/c3ccc(F)cc3)CC2)c(C)c1 | 13.9
Cc1nc2nc(SCC(=O)O)nn2c(C)c1Cc1c(F)cccc1Cl | 31.5
COc1cc2c(C(=O)Nc3ccccc3F)cn(C)c(=O)c2cc1OC | 14.5
O=C(Cn1cnc2ccccc21)Nc1ccc(F)c(F)c1 | 8.41
Cc1ccc(C)c(NC(=S)NCCc2ccc(F)cc2)c1 | -0.384
Cc1ccc(SCc2c(-c3ccccc3)nn(C)c2Cl)cc1 | 10.5
CCC(=O)Nc1ccc(C(=O)OCc2ccccc2Cl)cc1 | 0.808
Cc1cc(C)n(CCC(=O)Nc2ccc3c(c2)OCCO3)n1 | 17.1
O=S(=O)(c1ccc(S(=O)(=O)N2CCC3(CC2)OCCO3)cc1)N1CCCC1 | -3.93
O=C(/C=C/c1ccc(S(=O)(=O)N2CCOCC2)cc1)NCCCn1ccnc1 | 35.2
O=[N+]([O-])c1ccc(NNS(=O)(=O)c2cc(Cl)ccc2Cl)nc1 | -68.8
C=CCOc1c(Br)cc(/C=N/O)cc1OCC | -8.46
Br.CC(Oc1ccccc1)C(=O)NN1Cc2ccccc2C1=N (stereo not shown) | 22.1
Cc1ccccc1OCCNc1cc(N2CCCCC2)ccc1[N+](=O)[O-] | -17.2
O=C(CC1C(=O)NCCN1C(=O)Nc1ccccc1)Nc1ccc2c(c1)OCCO2 (stereo not shown) | -3.25
Cc1c(N=Cc2cc3c(cc2Cl)OCO3)c(=O)n(-c2ccccc2)n1C | 0.111
CC(C)N(c1nnc(N)s1)C(C)C | -6.08
O=C(c1cc(C2CC2)on1)N1CCN(c2ccc(F)cc2)CC1 | -43.4
O=C(CSC1=NCCS1)N1CCc2ccccc21 | 4.37
CCOC(=O)C(=O)NCC(c1ccco1)S(=O)(=O)c1cccs1 (stereo not shown) | -5.13
CC(=O)c1cccc(S(=O)(=O)Nc2cc(C(F)(F)F)ccc2N2CCOCC2)c1 | 1.15

Source: publication PMC4336329 (PLoS ONE, 2015)
